# Inconclusive results and toxic doses are left out. Certain results were filed several times, with different values. Only these are listed. An entry can have further records. Values that stand side by side do not match, cause unknown; they may come from other doses, times, organisms or constructs than stated.
# Test system: C57BL/6 mice, intracerebral ependymoblastoma, median survival T/C
# Test: NCI In Vivo Anticancer Drug Screen. Data for tumor model Ependymoblastoma (intracerebral) in C57BL/6 mice
# Conditions: endpoint: median survival time; dose: 64.0 mg/kg/injection; schedule: Q01DX001 (ip); vehicle: Klucel (hydroxypropylcellulose) (HPC); higher = longer survival
# Experimental: The antitumor activity of compounds was measured in mice bearing transplantable tumors. Survival or tumor size were measured and the results are expressed as the measurement made in the treated group (T) divided by the measurement made in the vehicle treated control group (C). The tumor model used in this assay is Ependymoblastoma (intracerebral) in C57BL/6 mice
structure (smiles),measurement,value
O=NN(CCCl)C(=O)NCCCl,T/C,"93 % of control, 104 % of control, 156 % of control"

# Reference: PubChem BioAssay AID222 (DTP/NCI, 2004)
